Assay results reported in the supplement of paper PMC11417369.
± gives the standard deviation of the averaged measurements. This is one part of the list.

Each sequence was assayed on PfAP2-I AP2 domain 3 (GST-tagged) (assay: gcPBM binding intensity (ln(normalized median fluorescence intensity)); higher = stronger DNA binding).
Summary of the method: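 Binding intensity values are the highest Masliner-normalised natural-log median intensity among replicate spots of either probe orientation. The binding step lasted 1 h in 1× PBS with 1% milk, 0.2 mg/ml BSA, 0.5% salmon testes DNA and 0.03% Triton X-100, using GST-tagged P. falciparum DNA-binding domains expressed in E. coli on an Agilent 4 × 180k array of primer-extended double-stranded 36-bp intergenic genomic probes plus negative controls. Alexa488 anti-GST antibody and a 488 nm scan detected bound protein.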

Sequence | gcPBM binding intensity (ln)
TTAAATATCCATATTTCACACATTTCGATATATATA [CACACA_site4208] | 7.68 ± 0.69
GAATGTAAATATTAAAGTACACAGAATATATCTTCA [XGTACX_site8149] | 7.79 ± 0.16
TATAATATTATATAATGTACGCATTTATTATTTAAA [XGTACX_site8326] | 7.7 ± 0.27
ATAATGTCATAATTATATCCTTTGGCATAAAATAAA [XGTACX_negctrl_site574] | 7.74 ± 0.18
CCTAAATAAATGGACACACACATATTTATATTTATA [CACACA_site6789] | 7.79 ± 0.39
AAATAAAATCATGAATGTACACAAAAATTATTGCAA [XGTACX_site5691] | 7.99 ± 0.43
TTTGAAGGAAGGGGGGGAGGGGCCATAACAAAGGAA [GTGCAC_negctrl_site408] | 10.4 ± 0.26
ATACCATATAATTATGTGAGAAAATATAATATTCAT [CACACA_negctrl_site310] | 7.61 ± 0.65
ATTTTCTTAAATAAATGTACATGGCATTAAAAGTAA [XGTACX_site5119] | 7.88 ± 0.35
TATTTGTATATTCATTCCTGTATTCCCTTTTTTGTA [CACACA_negctrl_site1236] | 7.75 ± 0.9
TGTACGTTTTTTAACACACACACAAAAAAAAAAAAA [CACACA_site6006] | 8.18 ± 0.72
ATATATATATATGTATGTACATAATATTTTTTTTAT [XGTACX_site5551] | 9.215 ± 0.078
AAAAAAAAAAAAAATACACACAAATAATAAAAATAA [CACACA_site1431] | 8.02 ± 0.4
TATATACGTAATAGTAGTACTTTAAAATGCGGAAAT [XGTACX_site4597] | 8.08 ± 0.64
TGTACGAGTCGTAGAGTGCAGTCTGGAGAAACGTAC [GTGCAC_site9682] | 9.13 ± 0.3
AAAAAAGATATATAAACACACATATTTATATACACA [CACACA_site6866] | 7.51 ± 0.48
GATAGACACGTGCACACATGCAATACTTTATTCAGT [TGCATGCA_site778] | 10.1 ± 0.32
ATAAATAACTTTTAAATACACACGTAAAATATATTG [CACACA_site3302] | 7.88 ± 0.36
ATTTATATTATGAGGAGTACAATACTTATAGATGTA [XGTACX_site7510] | 7.85 ± 0.34
ATATACATTTTAAATTTTAATGTAACCCATGGGAGA [CACACA_negctrl_site588] | 7.45 ± 0.6
TGAACCCACAAATCACGTACATATATATACACGTGT [XGTACX_site7739] | 7.81 ± 0.4
TTTAACAACTATTTCTGTACACATTTTTATATAATT [XGTACX_site4917] | 8.29 ± 0.42

Sequence | gcPBM binding intensity (ln)
TTTTTTAAATATATATGTACATATATCTATATATAT [XGTACX_site3461] | 8.47 ± 0.64
TTTATAATTTATAGGCGGACAGGAAAATTTTATAAA [XGTACX_site6955] | 8.38 ± 0.45
GCAAGGTCCACACTGGTGCATTAAAAATAAAATATA [GTGCAC_site9956] | 11.6 ± 0.41
TTTTTAATTTTTTTCACACATATATAAATACAAATA [CACACA_site5530] | 7.79 ± 0.4
AAATTACAAATAAAATGTACTCATGTTTTTATTATA [XGTACX_site7223] | 7.47 ± 0.42
TACAGGAATATTTTTACACACTAAAAGTTATAAACT [CACACA_site6876] | 7.57 ± 0.4
TTTTTCTTTTTTTGTTGTACATTTTGTAATATTTAC [XGTACX_site4102] | 7.9 ± 0.59
TGAACAGGTCATAATTTACACACTATATATTTTATT [CACACA_site8123] | 7.59 ± 0.6
TATAATATATATGTATGTACGTATGTATGATTTTGT [XGTACX_site1164] | 7.92 ± 0.49
AAGAAAAATTCTTCACGTACAAATAATTATATATAT [XGTACX_site7217] | 8.11 ± 0.53
TTATTTATATATTGCCCACACACATGTGATTATTTA [CACACA_site1715] | 8.24 ± 0.6
AATATTTTTTGTTTTACACACATATATAAATATATA [CACACA_site3602] | 7.92 ± 0.54
TATTCCCCCCAACACACACACACACCGACATACCAC [CACACA_site8723] | 9.79 ± 0.61
GAATTATATACTTATTGTACAAAAAAAAAAAAAAAA [XGTACX_site3193] | 7.99 ± 0.61
ATAAACATGTATATATTAAAAAAAAAAAAAAAAAAT [CACACA_negctrl_site92] | 7.64 ± 0.42
AGTAAATATATTATATGTACGTATCATAAAATATAT [XGTACX_site1567] | 7.68 ± 0.54
TTAATATTAAAATATAAACACACAAAATTCAATTAT [CACACA_site9262] | 7.56 ± 0.64
AAGTTTAAAGGAATTACACAAACAAGCAAATATATA [CACACA_negctrl_site857] | 7.79 ± 0.63
ATTTTTTTTTTTTTTTTTAATTTATGTTGTTATTTT [CACACA_negctrl_site944] | 7.46 ± 0.52
GTAAAATAAATAATATAAATAAAATGAAATGAAACA [TGCATGCA_negctrl_site519] | 7.68 ± 0.61
ATTATATAATAATAAAGTACTAATATTTTTAAAAGA [XGTACX_site235] | 7.66 ± 0.4
TAATATATTAAAAGAAGTACATTTCTGATTTAATAG [XGTACX_site6403] | 7.84 ± 0.29

Sequence | gcPBM binding intensity (ln)
GAACCGTTTTTATGTAGTACATATGTATATATATAT [XGTACX_site1577] | 9.34 ± 0.5
TATTACAAAAATGTGTTATTATATAAACGTATAGAG [XGTACX_negctrl_site529] | 7.93 ± 0.39
TTTCTTATATTATATAAATATATAGATGTTAATGGT [CACACA_negctrl_site706] | 7.83 ± 0.38
AATATAATATAATGCACACATAAAAAAAAAAAAAAA [CACACA_site304] | 11.1 ± 0.87
AATGTAAAACGAAATGCACACTATGGAAAATATAAA [CACACA_site4559] | 9.17 ± 0.11
TCTTTATATCATCTTTCTAAATATATATATATATAA [CACACA_negctrl_site77] | 7.84 ± 0.55
TAATAATAATTAAAATGAGATAAATAAATATATATA [TGCATGCA_negctrl_site322] | 7.75 ± 0.49
TTATATATTTATAAATGTACGTATAAGAATTTAATT [XGTACX_site8541] | 7.93 ± 0.39
CTATTAATGTACTCTACACACATATAAGAGGACATT [CACACA_site471] | 8.14 ± 0.12
TGATTATAGACACGCGCACACACAACAAAAAAAAAA [CACACA_site9179] | 8.45 ± 0.36
TAAGTTTGTGCAAGTGGTACATATATATAAATTTAT [XGTACX_site5944] | 8.32 ± 0.59
TGGATTTTTTGATTTTTGTTTTTCTTCTTTCCCCCC [CACACA_negctrl_site1471] | 8.93 ± 0.25
TTTACATAAACTGGTAGTACATAATATGGCTTAAAA [XGTACX_site5002] | 7.99 ± 0.45
TTAGCAACTATTACTACACACATTTGTATTTAATTT [CACACA_site4961] | 7.79 ± 0.68
TAAAATATATTTTTCTGTACACAAAAATATATTAAA [XGTACX_site2813] | 7.96 ± 0.17
TATATATTAATATATGCATGTTAATATATTATGAAA [TGCATGCA_site61] | 7.9 ± 0.75
ACAGTATAAAAATAAGCACACACACTAATATATATT [CACACA_site8212] | 8.19 ± 0.37
ACGATGTTCATCACTACACACACAAAGAAATATATA [CACACA_site8859] | 7.8 ± 0.47
AACCAAAATTTTTGTCGTACAAAAGAGCAAATGTAG [XGTACX_site6472] | 8.57 ± 0.25
TTTTACTATGATATTTATATATCTATATATGTATAT [XGTACX_negctrl_site499] | 7.31 ± 0.52
TATAATATTATAGTTTGTACGAAAATAATATATTTA [XGTACX_site8673] | 7.72 ± 0.37
AAAAATAAAAATGAGTGTACTTTAAGCCCTACACTT [XGTACX_site828] | 7.71 ± 0.49

Sequence | gcPBM binding intensity (ln)
ATAACAAAATAAAACACACACACAAATGTACCTATA [CACACA_site7190] | 7.88 ± 0.45
TAAAGGCAAACAAACACACACACATATATACCTATA [CACACA_site7078] | 7.79 ± 0.45
TATTTATAAATATAAACACACAACATTATATGCATA [CACACA_site5748] | 7.7 ± 0.45
AAAAGTGTATGTAGGTGTACTTTTTATTTCTTCTTT [XGTACX_site8819] | 7.94 ± 0.38
GATACAAAATGGGGAACACACACATATATATATATA [CACACA_site9278] | 9.29 ± 0.19
TATATATATATATAATGTACGAATAGAAAAAAAAAA [XGTACX_site7231] | 9.38 ± 0.15
CAAAATTTATATAATAGTACACATGATCTTTTTTCT [XGTACX_site8956] | 7.62 ± 0.47
TATATATATATATATATATATATTAATATATATTAC [XGTACX_negctrl_site103] | 9.1 ± 0.32
AAATTAATAAATATTTTTATAAATTATAATATTAAT [GTGCAC_negctrl_site533] | 7.25 ± 0.22
TTTTTTTTTTTTTAATGTACCCATGGGCACATAGGT [XGTACX_site486] | 8.26 ± 0.29
TAAATATAGGGTAATAGTACATAATTATATTCTTTT [XGTACX_site3883] | 7.51 ± 0.56
AATGGATTAGCTAGCACACACAAAAAAAAAAAAAAA [CACACA_site3031] | 8.07 ± 0.61
TACATATTTGTATATGCACACATAAATTTTTCCATT [CACACA_site9148] | 8.97 ± 0.15
AAATATTTATACCACACACACATACCTCTATTTGTA [CACACA_site6957] | 8.03 ± 0.56
GTATATATATTTGTACGTACATATTGTTGTAAACAC [XGTACX_site8833] | 8.3 ± 0.16
TTTTTTATTGTGATACGTATATTATTTTATGATTAA [GTGCAC_negctrl_site202] | 7.87 ± 0.69
AAGAGAGACATCAACACACATACGTATGTATAGAAA [CACACA_site1397] | 7.64 ± 0.44
TTCATTTTAATAATATGTACATAATATATTTAAAAA [XGTACX_site634] | 7.785 ± 0.064
CGTATGCGTATATACACACCCACGTATATATATAAA [CACACA_site3200] | 8.02 ± 0.34
ATTTTTAATCATTTACAACCTAGTGATTATACAAAT [CACACA_negctrl_site1089] | 7.77 ± 0.61
ATATAATAATTGTACACATGCACACACAAATATTAT [TGCATGCA_site204] | 8.59 ± 0.34
